# From the supplement of paper PMC4466236
# Whole data set: some 33,000 sequences, median “E-score (dimensionless, -0.5 to 0.5)” near -0.058, cut for the highest 2% near 0.35. The list shows a part of the results.
# Tested on: MvaT
# Experiment: PBM 8-mer E-score (mean of HK and ME arrays) (E-score (dimensionless, -0.5 to 0.5)); higher = stronger relative binding preference; most listed sequences are background and not binding sites
# Method: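 Protein binding microarray: GST-tagged full-length MvaT (P. aeruginosa PAO1) bound to two universal double-stranded 60-mer arrays (ME and HK), each with a constant 25-mer primer and a variable 35-mer region covering all 8-mers. The 8-mer E-score (rank-based, range -0.5 to 0.5, >0.45 = specific binding) is the mean of the two arrays.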
row,Sequence,PBM 8-mer E-score
1,ATGTCGCC,-0.205
2,CATACCAG,-0.0357
3,GCTGGTTA,0.0965
4,ATATGAAG,0.211
5,CACTAGCC,-0.269
6,ATGTGCAA,-0.0709
7,CACAAAAA,0.117
8,AACCGCCT,-0.233
9,ACGATTAT,0.245
10,AGCAGGTG,-0.242
11,AACAGCTC,-0.0832
12,GCGCCCCA,-0.311
13,TAAGTAAA,0.339
14,AGGAAATG,0.0162
15,ATTTTGAG,0.134
16,CGGTCACC,-0.257
17,AGCGGGCA,-0.124
18,CAGTTGCG,-0.0888
19,AAGCTAAA,0.0847
20,ACAGTTTG,0.0594
21,CCGTACAA,0.0642
22,CGAGCCAG,-0.276
23,ACACTGGT,-0.129
24,ATAACGTG,0.167
25,AATCCACC,-0.062

row,Sequence,PBM 8-mer E-score
1,ACTGTACG,-0.0437
2,CAAGCCAG,-0.178
3,AGCCTATC,-0.068
4,CAAATGGA,0.0224
5,GGTCGGGA,-0.309
6,CTCATTCC,-0.204
7,ACATACCA,0.102
8,AACGTTAT,0.289
9,ATTGCGGG,0.115
10,CCGGATCG,-0.273
11,ACGTAACT,0.129
12,AGAGCAAC,-0.161
13,AGTATTTG,0.308
14,GATGACGC,-0.233
15,CGGCAATC,-0.127
16,CGCATGGC,-0.3
17,GAAAGACA,0.0428
18,CGTTACTA,0.0897
19,CCGGAGGC,-0.237
20,CTCTCACA,-0.253
21,AGTCACGA,-0.191
22,ATTCCTAC,0.00348
23,AAGTCAAT,0.0553
24,ATTATCCG,0.212
25,GTGTGCCA,-0.112

row,Sequence,PBM 8-mer E-score
1,CTGTGAGA,0.00153
2,AAGCGCTC,-0.134
3,AAGACCGA,-0.223
4,AGCGCTAT,0.00716
5,AGAACTCG,-0.169
6,CAGGTTTC,-0.24
7,CCGGGTTA,-0.146
8,CGTTCTGA,-0.154
9,GCAGTTCA,-0.0406
10,AGGTTCTC,-0.286
11,CTTCGGCA,-0.0818
12,ACCAAATC,0.0905
13,AGATTACC,0.00434
14,CTTATGCA,0.06
15,GTAAGTAC,0.151
16,AGCACGAA,-0.0112
17,CCACCCAC,-0.199
18,AGTGAGGC,-0.193
19,GCCTGCTA,-0.177
20,CATTTTAC,0.217
21,ATTCATTC,0.2
22,AGGCCCCT,-0.343
23,TACTGCGA,-0.121
24,CACGGACA,-0.124
25,TCAAACGA,0.0344

row,Sequence,PBM 8-mer E-score
1,GACATATA,0.362
2,CTCCATGA,-0.122
3,AAGCGTAA,0.0807
4,GAGACTTA,0.0232
5,AGCCATAA,0.086
6,AGACATCC,-0.0887
7,AAATTGTA,0.267
8,TAGTAACA,0.274
9,CGCTATTC,0.132
10,AATGCCTC,-0.186
11,CAGCCGTC,-0.275
12,ATTGTATG,0.25
13,ACGAGTTA,0.232
14,CCCCAAGA,-0.255
15,GCAGCTTA,-0.0391
16,GTCTAGAC,-0.0101
17,TAATTGCA,0.318
18,ATACCGCC,0.0236
19,GTCTTGTA,0.0803
20,ATCTGGCC,-0.308
21,TAATGGTA,0.295
22,CCTCCCAC,-0.225
23,AATAAGGG,0.231
24,CTATCCAA,-0.0391
25,AACATCGG,0.0723

row,Sequence,PBM 8-mer E-score
1,TCCCTTCA,-0.155
2,ACACCCAG,-0.00314
3,AGAGAATA,0.195
4,AAACATTG,0.193
5,AGTAATTC,0.144
6,AGTCGAGC,-0.226
7,CACATCGG,-0.276
8,GGCACCTA,-0.188
9,AGCATCTA,0.116
10,TGTATACA,0.351
11,GTGCATTA,0.259
12,GCAGCCTA,-0.231
13,ATTTAAGC,0.309
14,CGAATCCA,-0.19
15,CTTCATTA,0.338
16,CTACTTCC,0.0752
17,TAGTGATA,0.216
18,CGAGGTAC,-0.301
19,AAATGGGC,-0.0679
20,ATATTCTA,0.348
21,AGCTGACG,-0.315
22,GGACCAAC,-0.0023
23,CGACATGA,0.0239
24,TAGCTTCA,-0.0931
25,CATATGTA,0.252

row,Sequence,PBM 8-mer E-score
1,GTCAGGTA,-0.0811
2,ATAGAGCA,-0.034
3,GTATGTGA,0.154
4,CGTAAACA,-0.0446
5,GACGTAGC,-0.0794
6,ACGCTACG,-0.0596
7,CTGTCCTC,-0.192
8,AACCAGCG,-0.109
9,AGGGATAC,-0.1
10,GGTCAACA,-0.0268
11,CATTTTGC,-0.123
12,CATCAACC,-0.195
13,ACAAACAC,0.265
14,GTTGCTGA,0.0521
15,CCTTTTCC,-0.211
16,TACGAGCA,-0.0785
17,GGAGATGA,-0.186
18,AAACGAAC,0.0205
19,CGCTACCA,-0.153
20,CAACACCA,0.0286
21,GGTGATGA,-0.178
22,ATGAAGCA,-0.0371
23,ACTTTGAC,0.0802
24,TAGTCCCA,-0.0362
25,GATTCCTA,-0.0833

row,Sequence,PBM 8-mer E-score
1,ACTAGAAA,0.126
2,AACCCAAC,0.113
3,AGCAGAAA,-0.0176
4,ATGCTCAG,-0.303
5,AGAGATGA,-0.171
6,AGCGCATG,-0.12
7,CATTAGCG,-0.0599
8,CTCAATAC,0.129
9,GTTCATGA,0.0893
10,ACAGCTTA,0.0908
11,CTTGAAGA,-0.105
12,CGTAATGA,0.00917
13,ATAAGGAT,0.139
14,CGAGGGTA,-0.0625
15,TAATATGA,0.354
16,ACTATACA,0.241
17,TGATCCAA,-0.0322
18,AAGTACTA,0.257
19,AATGACGT,0.0251
20,ATAGCTAT,0.223
21,CATCCGCG,-0.146
22,ATTGCGTA,0.139
23,AAGTGGCC,-0.204
24,TATAAAAA,0.371
25,AGAGGTAG,-0.21

row,Sequence,PBM 8-mer E-score
1,AAGTCATT,0.131
2,CAATGAGC,-0.229
3,CGGCGTCC,-0.226
4,CGAGCCCA,-0.142
5,AGTCGCCC,-0.305
6,ACCGCTAC,-0.172
7,AGTCGGAT,-0.221
8,CGCTATGA,-0.13
9,ATGCTAGG,-0.121
10,CTCGAGAA,-0.0364
11,AGTAGTTA,0.265
12,GTAAAACA,0.266
13,GCTGGTAA,-0.0318
14,CGGCATCA,-0.116
15,AGGTGCAT,-0.0802
16,CAGCTGTC,-0.223
17,GCTACCAC,-0.103
18,AACACCGA,-0.0333
19,AAGGGGTA,-0.15
20,TGCGTGAA,-0.185
21,CGAAACAG,-0.129
22,AACTCTCC,0.0171
23,AGACATGC,-0.0895
24,CGGCGCCG,-0.165
25,TAAACTCA,0.255

row,Sequence,PBM 8-mer E-score
1,CGAGTCAA,0.00213
2,CGCAGATC,-0.178
3,CGACTACG,-0.11
4,CTGATACA,0.0751
5,AGCCACAC,-0.00174
6,AAACTCAT,0.0651
7,ATACCGTC,-0.138
8,AAGTCTCC,-0.239
9,CATGAGCA,0.00704
10,CAATTGTG,0.129
11,ATGCATGA,-0.142
12,CTAGACTC,-0.29
13,AAGCCTAA,-0.0321
14,ACGCGTCA,-0.199
15,GTCTGACA,-0.13
16,TAGGACGA,-0.0097
17,CCGACCGC,-0.312
18,TAACATCA,0.259
19,ACCCAGGG,-0.234
20,GAATCCGC,-0.0989
21,ACGTGAGC,-0.229
22,AGACCGTG,-0.0731
23,GCCTACAC,-0.146
24,ATTCGTGG,-0.00515
25,CTGCGGGA,-0.21

row,Sequence,PBM 8-mer E-score
1,AGCTCGCC,-0.22
2,GCATCACA,-0.109
3,GTCTTGCA,0.0636
4,AATCTACT,0.0553
5,GCATCGAA,-0.0501
6,ACGGAAAG,-0.0394
7,GACGCTAC,-0.21
8,GATGCTGA,-0.192
9,CGGACGAG,-0.236
10,AATGAATA,0.223
11,GTACCGCA,-0.0077
12,CCAACACG,-0.181
13,GCCTGTCC,-0.241
14,CTTACCAA,0.104
15,CTATACCC,-0.012
16,TGTCACAA,0.0903
17,ACTAACCT,-0.0268
18,ATGAAGCC,-0.191
19,GTGATATA,0.247
20,CACCTAGC,-0.227
21,ACTGAGTC,-0.236
22,TCTTCACA,-0.00147
23,CGCACAAC,0.0246
24,ATCTCCGA,-0.183
25,ATCCCGGG,-0.241

row,Sequence,PBM 8-mer E-score
1,CCGAGTAG,-0.242
2,CAGCTGAA,-0.116
3,GGCCGCGA,-0.196
4,AGGAATTG,0.0728
5,ACAACAGT,0.00557
6,AACGGCAT,0.0341
7,CAGATGAC,-0.158
8,GACTTACC,-0.0439
9,CTCAGCGC,-0.238
10,GGGGGGTA,-0.254
11,AACAATTG,0.217
12,ACTCAAAC,0.0571
13,GGCCCCCA,-0.339
14,CTACTAGC,-0.248
15,ACGACCCC,-0.289
16,CAGCCTCC,-0.315
17,ATGTTACG,0.0562
18,ACTCGCAA,0.0418
19,CATACATG,0.0601
20,GGGCGCGA,-0.204
21,CTCCAAGC,-0.235
22,AGAGGAAG,-0.145
23,GGCCTCAA,-0.166
24,AGCCCCGG,-0.303
25,AAATCACG,0.0934

row,Sequence,PBM 8-mer E-score
1,CCCTCAGC,-0.262
2,CCCGCGGC,-0.147
3,AAACCTGG,-0.0774
4,CACGAGCA,-0.153
5,GATCAACA,-0.0821
6,CGTGAGAC,-0.18
7,AATCTCGG,0.0949
8,TCCGCAGA,-0.0767
9,ATCCGCGC,-0.1
10,CTGCTCCC,-0.257
11,TCCTTAAA,-0.0192
12,AGTACCCA,-0.0393
13,CACCCTCA,-0.0206
14,AAAAGCTA,0.00235
15,ATAAAGTA,0.326
16,CGGGGCTA,-0.151
17,AAGTCTTG,0.0494
18,CTTTACTC,-0.16
19,GGGTTTTA,0.135
20,ACGCCCGG,-0.203
21,CCATTAAG,0.203
22,AAAACATT,0.225
23,CGGTAGTC,-0.0816
24,TCCCACAA,0.0216
25,GCAATGAC,-0.168

row,Sequence,PBM 8-mer E-score
1,AGGATAAT,0.353
2,ATGCAAGA,0.0319
3,GAAGTCTA,-0.00413
4,ACCAGGCG,-0.226
5,TGTGCGAA,0.132
6,AACATCTT,0.247
7,AGCATCGA,-0.0945
8,GACGATCA,-0.181
9,ACGTCGCG,-0.158
10,GTCATAAA,0.133
11,AAACACGC,0.109
12,CAAGTAGG,0.045
13,GACCTCTA,-0.233
14,CAACTCCA,-0.0538
15,AATTGGAT,0.157
16,GCTTTGGA,-0.166
17,AACATCGC,0.0349
18,CGGGACTC,-0.186
19,ATCCCTGG,-0.126
20,ATTAAAAT,0.29
21,CTTATTCA,0.194
22,TAATAAGA,0.375
23,AGAAATAT,0.356
24,CGTCGAGA,-0.0967
25,AATAACTA,0.348

row,Sequence,PBM 8-mer E-score
1,GACGTGGC,-0.232
2,CGGAGTAA,-0.116
3,GGCGAGAC,-0.166
4,ATTTTGTC,0.251
5,ACGCTAAA,0.127
6,GGCCATCA,-0.162
7,ACCTTCAT,-0.0739
8,GATCTGAA,-0.0827
9,CAGTCGAA,-0.197
10,AAGTTATT,0.415
11,GATGTCTA,-0.00553
12,AATGGAAT,0.0822
13,CCTTTACG,-0.0732
14,CTGAAGCC,-0.261
15,ATAAAGTG,0.228
16,CCTAGGAA,-0.193
17,CAATGTGG,-0.0165
18,ACTAGATA,0.14
19,ATAGTTTC,0.275
